T1: RBFOX1 RRM RbFoxmut (Fox-RRM*) (Homo sapiens, UniProt Q9NWB1 109-208, R118D;E147R;N151S;E152T)
T1 sequence: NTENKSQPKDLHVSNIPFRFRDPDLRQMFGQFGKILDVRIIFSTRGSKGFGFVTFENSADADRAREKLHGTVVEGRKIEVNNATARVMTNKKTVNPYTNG

B1: CGUCUGG (DNA:RNA)
RNA: GGGAGACCGGAAUUCAGAUUGUCCCGUCUGGUUAAAUCCCGUCGUAGCCACCA
DNA 1: CAATCTGAATTCCGGTCTCCC
DNA 2: TGGTGGCTACGACGGGATT
B2: GCCUAGU (DNA:RNA)
RNA: B1 RNA with C25G, G26C, U27C, C28U, U29A, G31U
DNA 1: CAATCTGAATTCCGGTCTCCC
DNA 2: TGGTGGCTACGACGGGATT
B3: CCACUCA (DNA:RNA)
RNA: B1 RNA with G26C, U27A, G30C, G31A
DNA 1: CAATCTGAATTCCGGTCTCCC
DNA 2: TGGTGGCTACGACGGGATT
B4: CUGCACA (DNA:RNA)
RNA: B1 RNA with G26U, U27G, U29A, G30C, G31A
DNA 1: CAATCTGAATTCCGGTCTCCC
DNA 2: TGGTGGCTACGACGGGATT
B5: GGUCCUU (DNA:RNA)
RNA: B1 RNA with C25G, U29C, G30U, G31U
DNA 1: CAATCTGAATTCCGGTCTCCC
DNA 2: TGGTGGCTACGACGGGATT
B6: GUGUAAC (DNA:RNA)
RNA: GGGAGACCGGAAUUCAGAUUGUCCGUGUAACUUAAAUCCCGUCGUAGCCACCA
DNA 1: CAATCTGAATTCCGGTCTCCC
DNA 2: TGGTGGCTACGACGGGATT
B7: ACGUAAG (DNA:RNA)
RNA: B6 RNA with G25A, U26C, C31G
DNA 1: CAATCTGAATTCCGGTCTCCC
DNA 2: TGGTGGCTACGACGGGATT
B8: CGCUUCG (DNA:RNA)
RNA: B1 RNA with U27C, C28U, G30C
DNA 1: CAATCTGAATTCCGGTCTCCC
DNA 2: TGGTGGCTACGACGGGATT
B9: CGCCAGA (DNA:RNA)
RNA: B1 RNA with U27C, U29A, G31A
DNA 1: CAATCTGAATTCCGGTCTCCC
DNA 2: TGGTGGCTACGACGGGATT
B10: ACCGCCA (DNA:RNA)
RNA: GGGAGACCGGAAUUCAGAUUGUCCACCGCCAUUAAAUCCCGUCGUAGCCACCA
DNA 1: CAATCTGAATTCCGGTCTCCC
DNA 2: TGGTGGCTACGACGGGATT
B11: ACAACAA (DNA:RNA)
RNA: B10 RNA with C27A, G28A, C30A
DNA 1: CAATCTGAATTCCGGTCTCCC
DNA 2: TGGTGGCTACGACGGGATT
B12: UGAUAGA (DNA:RNA)
RNA: B1 RNA with C25U, U27A, C28U, U29A, G31A
DNA 1: CAATCTGAATTCCGGTCTCCC
DNA 2: TGGTGGCTACGACGGGATT
B13: GCCUAGC (DNA:RNA)
RNA: B6 RNA with U26C, G27C, A30G
DNA 1: CAATCTGAATTCCGGTCTCCC
DNA 2: TGGTGGCTACGACGGGATT
B14: CCGAGUG (DNA:RNA)
RNA: B1 RNA with G26C, U27G, C28A, U29G, G30U
DNA 1: CAATCTGAATTCCGGTCTCCC
DNA 2: TGGTGGCTACGACGGGATT
B15: CUGUGCU (DNA:RNA)
RNA: B6 RNA with G25C, A29G, A30C, C31U
DNA 1: CAATCTGAATTCCGGTCTCCC
DNA 2: TGGTGGCTACGACGGGATT
B16: UCUACAA (DNA:RNA)
RNA: B10 RNA with A25U, C27U, G28A, C30A
DNA 1: CAATCTGAATTCCGGTCTCCC
DNA 2: TGGTGGCTACGACGGGATT
B17: AGCUGCG (DNA:RNA)
RNA: B10 RNA with C26G, G28U, C29G, A31G
DNA 1: CAATCTGAATTCCGGTCTCCC
DNA 2: TGGTGGCTACGACGGGATT
B18: GCCGAGC (DNA:RNA)
RNA: B10 RNA with A25G, C29A, C30G, A31C
DNA 1: CAATCTGAATTCCGGTCTCCC
DNA 2: TGGTGGCTACGACGGGATT
B19: GCCACUA (DNA:RNA)
RNA: B10 RNA with A25G, G28A, C30U
DNA 1: CAATCTGAATTCCGGTCTCCC
DNA 2: TGGTGGCTACGACGGGATT
B20: AGUGCCG (DNA:RNA)
RNA: B10 RNA with C26G, C27U, A31G
DNA 1: CAATCTGAATTCCGGTCTCCC
DNA 2: TGGTGGCTACGACGGGATT
B21: AGAUCAA (DNA:RNA)
RNA: B10 RNA with C26G, C27A, G28U, C30A
DNA 1: CAATCTGAATTCCGGTCTCCC
DNA 2: TGGTGGCTACGACGGGATT
B22: GUCCUGG (DNA:RNA)
RNA: B1 RNA with C25G, G26U, U27C
DNA 1: CAATCTGAATTCCGGTCTCCC
DNA 2: TGGTGGCTACGACGGGATT
B23: ACGUCUU (DNA:RNA)
RNA: B10 RNA with C27G, G28U, C30U, A31U
DNA 1: CAATCTGAATTCCGGTCTCCC
DNA 2: TGGTGGCTACGACGGGATT
B24: GGAAGUG (DNA:RNA)
RNA: B1 RNA with C25G, U27A, C28A, U29G, G30U
DNA 1: CAATCTGAATTCCGGTCTCCC
DNA 2: TGGTGGCTACGACGGGATT
B25: UAGAUUU (DNA:RNA)
RNA: B1 RNA with C25U, G26A, U27G, C28A, G30U, G31U
DNA 1: CAATCTGAATTCCGGTCTCCC
DNA 2: TGGTGGCTACGACGGGATT
B26: GCACAAC (DNA:RNA)
RNA: B6 RNA with U26C, G27A, U28C
DNA 1: CAATCTGAATTCCGGTCTCCC
DNA 2: TGGTGGCTACGACGGGATT
B27: UAAAAAU (DNA:RNA)
RNA: B6 RNA with G25U, U26A, G27A, U28A, C31U
DNA 1: CAATCTGAATTCCGGTCTCCC
DNA 2: TGGTGGCTACGACGGGATT
B28: AAACCCU (DNA:RNA)
RNA: B10 RNA with C26A, C27A, G28C, A31U
DNA 1: CAATCTGAATTCCGGTCTCCC
DNA 2: TGGTGGCTACGACGGGATT
B29: CCAGCAG (DNA:RNA)
RNA: B10 RNA with A25C, C27A, C30A, A31G
DNA 1: CAATCTGAATTCCGGTCTCCC
DNA 2: TGGTGGCTACGACGGGATT
B30: AGCACAA (DNA:RNA)
RNA: B10 RNA with C26G, G28A, C30A
DNA 1: CAATCTGAATTCCGGTCTCCC
DNA 2: TGGTGGCTACGACGGGATT
B31: UGAAGAG (DNA:RNA)
RNA: B1 RNA with C25U, U27A, C28A, U29G, G30A
DNA 1: CAATCTGAATTCCGGTCTCCC
DNA 2: TGGTGGCTACGACGGGATT

Residue numbers refer to the chain shown, from its start. Some of the results follow.

These results are taken from paper PMC9911399, “Two distinct binding modes provide the RNA-binding protein RbFox with extraordinary sequence specificity”.

The target in this assay is T1, RBFOX1 RRM RbFoxmut (Fox-RRM*). The assay can be described thus: EMSA; HiTS-Eq, 1 nM pool, 10 min; buffer printed only for the single-RNA assays: 10 mM Tris pH 7.5, 150 mM NaCl, 3.4 mM EDTA, 0.001% NP-40, 30 C. The settings on record: tags: His6 N-terminal (pET28a); label: 5' 32P. In outline: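 Relative association constants, normalised to the cognate motif, were derived by comparing read counts of each RNA species with those of the control reaction. The RNA sequenced was the free fraction, separated by 8% native PAGE after a 10 min equilibration in 50 µL of 1 nM 5′-radiolabelled RNA (7 randomized nucleotides) with increasing concentrations of purified wild-type or mutant RbFox RRM.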
A general note: A gel shift assay detects complexes by their altered migration in electrophoresis.
B1: the binding signal was 0.128 KA relative to UGCAUGU. Regarding B2, the binding signal was 0.112 KA relative to UGCAUGU.

B3: the binding signal is 0.118 KA relative to UGCAUGU. B4: the binding signal was 0.0799 KA relative to UGCAUGU. B5: the binding signal was 0.0718 KA relative to UGCAUGU. Next, B6: 0.0733 KA relative to UGCAUGU; B7: 0.133 KA relative to UGCAUGU; B8: 0.16 KA relative to UGCAUGU. B9: the binding signal is 0.094 KA relative to UGCAUGU. Regarding B10, the binding signal is 0.106 KA relative to UGCAUGU. As for B11, the binding signal was 0.0732 KA relative to UGCAUGU. Consider B12, for which the binding signal is 0.0949 KA relative to UGCAUGU. For the molecule B13, the binding signal was 0.106 KA relative to UGCAUGU. For the molecule B14, the binding signal was 0.167 KA relative to UGCAUGU.

In the case of B15, the binding signal is 0.118 KA relative to UGCAUGU.

As for B16, the binding signal is 0.0819 KA relative to UGCAUGU. Next, B17: 0.132 KA relative to UGCAUGU.

Consider B18, for which the binding signal is 0.104 KA relative to UGCAUGU. Turning to B19, the binding signal is 0.0792 KA relative to UGCAUGU. On to B20, for which the binding signal was 0.142 KA relative to UGCAUGU. B21: the binding signal is 0.0835 KA relative to UGCAUGU. Regarding B22, the binding signal is 0.075 KA relative to UGCAUGU.

Consider B23, for which the binding signal was 0.0723 KA relative to UGCAUGU.

Turning to B24, the binding signal is 0.122 KA relative to UGCAUGU. B25: the binding signal was 0.107 KA relative to UGCAUGU. The figure for B26 is 0.0413 KA relative to UGCAUGU; for B27 it is 0.0612 KA relative to UGCAUGU; for B28 it is 0.0568 KA relative to UGCAUGU. Turning to B29, the binding signal is 0.113 KA relative to UGCAUGU. Next, B30: 0.0502 KA relative to UGCAUGU; B31: 0.0879 KA relative to UGCAUGU.
